Data on 60 compounds can be found in PubChem BioAssay AID1347044 (National Center for Advancing Translational Sciences (NCATS), 2019).

The CC50 is the concentration that lowers cell viability or growth by half.

Each structure is given as a SMILES string. This is one part of the list. The main result of the screen is listed elsewhere. These columns were measured beside it and carry no call. Most of these compounds were active or inconclusive in the main read-out, so they are no random draw. The note in brackets gives the kind of curve behind each potency; many fits are weak.
Tags give direction and shape of the fitted curve.

This experiment can be described thus: Natriuretic polypeptide receptor (hNpr1) antagonism - Confirmation. Note: nearly all actives have a fitted effect of over 70% in size. The conditions noted are these: HEK293 hNpr1 cGMP GloSensor luminescence, ANP-stimulated; measured here: HEK-hNpr1 cytotoxicity, CellTiter-Glo. The protocol: In order to identify small molecular compounds that inhibit the hNpr1 receptor we developed a high-throughput assay to measure inhibition of the guanylate cyclase activity of the receptor. cGMP production was measured using a circular permutated Firefly luciferase (FLuc) enzyme functionally linked to the cGMP binding domain of human phosphodiesterase 5 (GloSensor technology pGS-40F, (Fan, F. et al. 2008). The cGMP-sensor was expressed in human embryonic kidney 293 (HEK-293) cells and FLuc activity was measured after stimulation with hNrp agonist peptide. hNrp agonists activates the receptor's associated guanylyl cyclase (GC) domain producing cGMP which then binds to the GloSensor resulting in FLuc activation, the enzymatic activity of which can be measured as bioluminescence with addition of luciferin substrate. A cytotoxicity counter-screen using the HEK-hNpr1-cGMP-sensor cells was also performed on the follow-up compounds. F. Fan, B. F. Binkowski, B. L. Butler, P. F. Stecha, M. K. Lewis, K. V. Wood, Novel genetically encoded biosensors using firefly luciferase. ACS Chem Biol 3, 346-351 (2008).
PROTOCOL TABLES (as described by Inglese J, Shamu CE and Guy RK. 2007) SEQUENCE No. (e.g., 1, 2, 3, etc.); PARAMETER (e.g., Cells, Incubation, Reagent, etc.); VALUE and DESCRIPTION. GLOSENSOR PROTOCOL 1. Cells. Seed 1500 HEK293 cGMP-sensor cells expressing hNpr1 per well in 4uL into Greiner 1536-well white/solid bottom high base, tissue culture-treated plates. 2. Incubation. Incubate plated cells at 37C in 5% CO2, 95% RH overnight. 3. Reagent. Add 1uL per well GloSensor reagent from Promega (2% final concentration) or CO2 independent media vehicle control to respective columns of Greiner 1536-well plates. 4. Incubation. Incubate plated cells at room temperature for 2 h, protect from light. 5. Compounds. Library compounds and A-71915 control added at 23 nL per well, transferred by Pin Tool. 6. Incubation. Incubate plated cells for 30 min. at room temperature, protect from light. 7. Detector. GloSensor baseline pre-read luminescence measured using CCD-based camera (Viewlux). 8. Compound. Add 1uL of hNppA peptide to 0.1 nM final concentration to stimulate hNpr1 or CO2 independent media as vehicle control. 9. Incubation. Incubate treated cells at room temperature for 20 min., protect from light. 10. Detector. GloSensor post-hNppA luminescence measured using CCD-based camera (Viewlux). NOTES (numbers refer to Sequence numbers above) 1. HEK293 cells expressing hNpr1 and GIP/pGS-40F grown to 85-95% confluence (48-72 h) in T175 culture flasks (CO2 independent media supplemented with 10% FBS, 1% Pen/Strep antibiotics and 1 ug/mL puromycin). Trypsinize and harvest cells from T175 culture flasks and filter through 40 um cell strainer. Cells counted with Invitrogen Countess (30,000,000 - 50,000,000 cells/flask). Cells diluted to a final concentration of 375 cells/uL in CO2 independent media and a Millipore multidrop used to dispense 1500 cells per well (4uL/well) into 13 1536-well Greiner White/Solid bottom, high base tissue-culture treated (TC) plates and one Aurora 1536-well Black/Clear bottom, low base, TC plate (for visual inspection of cell health throughout the duration of the assay). 2. Cells incubated overnight at ambient temperature, 24 h. at 37C in 95% RH incubator protected from light, covered with metal lid with gas-exchange holes. 3. Prepare GloSensor Reagent (Promega): Reconstitute GloSensor luciferase substrate by adding 8.2mL Hepes buffer to 250mg substrate, mix well, protect from light and stored at -80C. Prepare a fresh 12% GloSensor solution in CO2 independent supplemented plating media (see above). Mix well and store at ambient temperature, protected from light. 1uL 12% GloSensor Luciferase Reagent added (2% final concentration) to respective columns of 13 x 1536-well Greiner plate with BioRaptr, 1uL CO2 independent plating media added to respective columns as vehicle control with BioRaptr. 4. […]
A general note: ATP-based viability assays read luminescence as a measure of living cells.
Take `CC(C)NC(=O)N[C@H]1C[C@@H](Cc2cc(CN3CCN(c4ccccc4)CC3)on2)C1(C)C`: the CC50 was 15.3 µM [falling, partial curve].

As to `Cc1ccc(NC(=O)N2CCC3(CC2)CC(Cc2nc(-c4ccccc4)no2)CCO3)cc1C` (stereo not given), the CC50 was 12.2 µM [falling, partial curve].

On to `COCc1nc(-c2ccc(OC3CCN(C(=O)CCc4ccc(OC)cc4)C3)cc2)no1` (stereo not given), for which the CC50 is 27.3 µM [falling, partial curve].

`O=C(c1ccc2nc[nH]c2c1)N1CCC(CO)(CCCc2ccccc2)CC1`: the CC50 was 21.7 µM [falling, partial curve].

In the case of `CCn1nc(C)c(CNC(=O)c2cc(COc3ccc4ncccc4c3)on2)c1C`, the CC50 is 13.7 µM [falling, partial curve].

`COc1cccc(CC(=O)N2CCC(n3cc(-c4nc(-c5ccccc5)no4)nn3)CC2)c1`: the half-maximal cytotoxic concentration (CC50) was 19.3 µM [falling, partial curve].

Regarding `COc1ccc([S+](=O)([O-])N2CCC3(CC2)OCCN(c2ccc(F)cc2)C3=O)cc1`, the CC50 was 44.4 µM [falling, single point].

For `COc1ncccc1-c1cnc2[nH]cc(CC(=O)Nc3cccc(Cl)c3)c2c1`, the CC50 is 35.3 µM [falling, partial curve].

As for `O=C(c1ccc(F)cc1)N1CCC2(CC1)CC(N(Cc1ccc(F)cc1)C1CC1)CCO2` (stereo not given), the CC50 is 27.3 µM [falling, single point].

With `O=C1COc2ccc(NCc3cccs3)nc2CN1CCOc1ccccc1`, the CC50 was 31.4 µM [falling, partial curve].

Turning to `COc1cccc(-c2noc(CC3CCN(C(=O)c4cccc(F)c4)CC3)n2)c1`, the 50% cytotoxic concentration (CC50) was 13.7 µM [falling, partial curve].

For `CC1=C[C@@H](CNS(C)(=O)=O)[C@H](C(C)C)C[C@H]1Cc1nc2ccccc2n1C`, the CC50 was 35.3 µM [falling, partial curve].

In the case of `O=C(Nc1ccc(Oc2ccccc2)cc1)O[C@@H]1CO[C@H]2[C@@H]1OC[C@@H]2NC(=S)Nc1cccc2ccccc12`, the CC50 was 10.9 µM [falling, partial curve].

For `CCOc1ccc(CC(=O)N2CCC(Cc3nc(-c4ccc(F)cc4)no3)CC2)cc1`, the CC50 is 6.85 µM [falling, full curve].

As to `Cc1ccsc1C(=O)N1CCN(c2cc(-c3ccc(Cl)cc3)[nH]n2)CC1`, the CC50 is 24.3 µM [falling, partial curve].

As to `O=C(NCc1cccs1)c1csc(N2CCN(c3ccccc3F)CC2)n1`, the CC50 was 30.6 µM [falling, single point].

As to `Cc1ccc(NC(=O)c2cc3n(n2)CC(c2ccc4c(c2)OCO4)OC3)cc1Cl` (stereo not given), the CC50 is 34.3 µM [falling, single point].

For the compound `CN(C)c1ccc2ncc(Nc3ccc(Oc4ccccc4)cc3)n2n1`, the CC50 is 31.4 µM [falling, partial curve].

Regarding `CCNC(=O)N1CCOc2ccc(CCC(=O)Nc3ccc(C)cc3)cc2C1`, the CC50 was 19.3 µM [falling, partial curve].

As to `CCOc1ccc(C(=O)N2CCCN(c3cc(-c4ccc(F)cc4)[nH]n3)CC2)cc1`, the CC50 was 19.3 µM [falling, partial curve].

Regarding `O=C(c1cc(F)ccc1F)N1CCC2(CC1)N=C(c1ccc(Cl)cc1)NO2`, the 50% cytotoxic concentration (CC50) is 34.3 µM [falling, single point].

`Cc1ccccc1S(=O)(=O)N1CCCC(CCC(=O)Nc2cccc(Cl)c2)C1` (stereo not given): the CC50 was 21.7 µM [falling, partial curve].

Turning to `Cc1nc(N2CCC(NC(=O)c3ccc4ccccc4n3)CC2)cc(C(F)(F)F)n1`, the CC50 is 19.3 µM [falling, partial curve].

For `COc1ccc(OC)c(S(=O)(=O)N[C@H]2CO[C@H]3[C@@H]2OC[C@H]3OC(=O)Nc2cccc(C(F)(F)F)c2)c1`, the CC50 was 24.3 µM [falling, partial curve].

`CC1(c2noc(C3CCOCC3)n2)CCN(Cc2ccc(Cl)cc2F)CC1`: the CC50 is 21.7 µM [falling, partial curve].

As for `Cc1cccc(CN2CCCn3nc(C)c(-c4ccccc4-c4ccccc4)c32)n1`, the CC50 is 62.7 µM [falling, single point].

Consider `O=C(c1cocn1)N1CCNc2cnc(Nc3cccc(C(F)(F)F)c3)nc2C1`, for which the CC50 is 31.4 µM [falling, partial curve].

For `COc1cccc(CCC(=O)N2CCC(Cc3nc(-c4ccc(F)cc4)no3)CC2)c1`, the CC50 is 21.7 µM [falling, partial curve].

On to `CCNc1cc(N2CCC(CCC(=O)N3CCN(c4cccc(OC)c4)CC3)CC2)ncn1`, for which the cytotoxic concentration (CC50) is 17.2 µM [falling, partial curve].

Regarding `O=C(c1ccccc1F)N1CCN(C(=O)c2nnn3c2COC(c2ccc(Cl)cc2)C3)CC1` (stereo not given), the CC50 was 21.7 µM [falling, partial curve].

For `COc1cccc(NC(=O)Cc2c[nH]c3ncc(-c4cccnc4OC)cc23)c1`, the CC50 is 44.4 µM [falling, partial curve].

With `CC(=O)Nc1ccc(S(=O)(=O)N[C@H]2CO[C@H]3[C@@H]2OC[C@@H]3Nc2nccc(-c3cccc(F)c3)n2)cc1`, the CC50 was 19.3 µM [falling, partial curve].

As for `COc1cc(Cl)ccc1C(=O)N1CCN(C(=O)c2nnn3c2COC(c2ccccc2)C3)CC1` (stereo not given), the CC50 is 24.3 µM [falling, partial curve].

`COc1ccc2ccc(OCc3nc(C(=O)N4CCNC(=O)C4C)co3)cc2c1` (stereo not given): the CC50 is 21.7 µM [falling, partial curve].

Take `CCOC(=O)C1(Cc2ccc(Cl)cc2)CCN(C(=O)c2cc(C)oc2C)CC1`: the CC50 was 24.3 µM [falling, single point].

`O=C(c1ccc2c(c1)OCO2)N1CCC(Cc2nc(-c3ccc(F)cc3)no2)CC1`: the CC50 is 3.85 µM [falling, full curve].

Consider `COc1ccc(C(=O)Nc2ccc(-c3noc([C@@H]4CCCN4Cc4ccc(F)c(F)c4)n3)cn2)cc1`, for which the CC50 is 6.85 µM [falling, full curve].

On to `CC(C)N1C(=O)CO[C@H]2CCN(Cc3ccccc3Cl)CC[C@@H]21`, for which the cytotoxic concentration (CC50) was 11.1 µM [falling, partial curve].

Take `COc1ccc(NC(=O)c2cccc3c2CCN3C(=O)c2ccc(F)cc2)c(OC)c1`: the CC50 is 21.7 µM [falling, partial curve].

In the case of `Cc1nc(CN(C)C(=O)c2cc(Cn3c(C)nc4ccccc43)on2)cs1`, the CC50 was 17.2 µM [falling, partial curve].

As to `COc1cccc(CN2CCC(Oc3ccc(-c4noc(C5CC5)n4)cc3)C2)c1` (stereo not given), the CC50 is 24.3 µM [falling, partial curve, poor fit].

`CC1(C)[C@H](Cc2cc(CN3CCN(c4ccccc4)CC3)on2)C[C@@H]1NC(=O)Nc1ccc(F)cc1`: the half-maximal cytotoxic concentration (CC50) is 19.3 µM [falling, partial curve].

For `COC[C@@H]1CN(Cc2c(OC)cccc2OC)C[C@H]1c1ccncc1`, the CC50 was 21.7 µM [falling, partial curve].

For the compound `COc1cccc(-c2noc(CC3CCN(C(=O)c4cccc(Cl)c4)CC3)n2)c1`, the CC50 was 17.2 µM [falling, partial curve].

In the case of `Cc1noc(C)c1-c1cc2c(c(-c3ccccc3)c1)C(=O)N(C)C2`, the half-maximal cytotoxic concentration (CC50) was 25 µM [falling, partial curve].

`O=C(Cc1cccc(F)c1)N1CCC2(CC1)N=C(c1ccc(Cl)cc1)NO2`: the cytotoxic concentration (CC50) is 21.7 µM [falling, partial curve].

For the compound `CS(=O)(=O)c1ccc(CN2CC[C@@H](c3ccc4ccccc4c3)[C@H](O)C2)cc1`, the CC50 was 24.3 µM [falling, partial curve].

Consider `COc1ccc(S(=O)(=O)NC[C@H]2COCc3nc4c(C)cccc4n32)cc1`, for which the CC50 was 31.4 µM [falling, partial curve].

In the case of `N#Cc1ccc(C(=O)N2CCN(c3cc(-c4ccc(Cl)cc4)[nH]n3)CC2)cc1`, the CC50 is 17.2 µM [falling, partial curve].

Take `Cc1ccc(C(=O)N2CCC3(CC2)CC(N(Cc2ccccc2)C2CC2)CCO3)cc1F` (stereo not given): the CC50 was 21.7 µM [falling, partial curve].

As to `COc1ccc(OC)c(CN2CCCn3nc(C)c(-c4ccccc4C(C)C)c32)c1`, the CC50 was 39.6 µM [falling, partial curve].

Regarding `CC(C)(C)C(=O)N[C@H]1CO[C@H]2[C@@H]1OC[C@@H]2Nc1nccc(-c2ccc(-c3ccccc3)cc2)n1`, the CC50 was 21.7 µM [falling, partial curve].

Take `COc1ccc(-c2noc([C@@H]3C[C@H](NS(=O)(=O)c4ccc5ccccc5c4)CN3C)n2)cc1`: the CC50 is 19.3 µM [falling, partial curve].

Consider `CCOc1ccc(C(=O)N2CCCN(c3cc(-c4ccc(Cl)cc4)[nH]n3)CC2)cc1OCC`, for which the 50% cytotoxic concentration (CC50) is 15.3 µM [falling, partial curve].

With `CC(C)(C)CC(=O)N[C@H]1C[C@@H](Cc2cc(COc3ccccc3)on2)C1(C)C`, the CC50 was 19.8 µM [falling, partial curve].

In the case of `O=S(=O)(N[C@H]1CO[C@H]2[C@@H]1OC[C@@H]2Nc1nccc(-c2cccs2)n1)c1cccs1`, the CC50 was 13.7 µM [falling, partial curve].

Regarding `O=C(NCc1ccc(Cl)cc1)C1CCN(c2cc(C(F)(F)F)ncn2)CC1`, the CC50 was 19.3 µM [falling, partial curve].

Take `COc1cc(CNC(=O)c2ccc3c(c2)N(C(=O)c2ccc(F)cc2)CC3)cc(OC)c1`: the CC50 is 21.7 µM [falling, partial curve].

Take `CC(C)c1nncn1C1CCN(S(=O)(=O)c2ccc(Br)s2)CC1`: the CC50 was 13.7 µM [falling, partial curve].

Take `CN(Cc1nc(Cc2ccccc2Cl)no1)Cc1cccc2cnccc12`: the CC50 is 10.9 µM [falling, partial curve].
